Data published in paper PMC7819943, “Rice protein-binding microarrays: a tool to detect cis-acting elements near promoter regions in rice”.
The other results are listed elsewhere or left out.

target: T1, OsWOX13 (Oryza sativa, UniProt Q5QMM3 1-267); assay: protein-binding microarray (RPBM); PBS, 2% BSA, 51.3 ng/ul salmon testes DNA, 50 uM zinc acetate, 200 nM TF, 25 C, 1 h; high values mean tight binding; settings: protein: recombinant; tags: N-terminal polyhistidine and DsRed monomer fusion (pET32a); label: CyDye5-dUTP incorporated in the synthesized complementary strand; 3' TTTTT single-stranded linker to array surface; dsDNA, one strand shown
T1 sequence: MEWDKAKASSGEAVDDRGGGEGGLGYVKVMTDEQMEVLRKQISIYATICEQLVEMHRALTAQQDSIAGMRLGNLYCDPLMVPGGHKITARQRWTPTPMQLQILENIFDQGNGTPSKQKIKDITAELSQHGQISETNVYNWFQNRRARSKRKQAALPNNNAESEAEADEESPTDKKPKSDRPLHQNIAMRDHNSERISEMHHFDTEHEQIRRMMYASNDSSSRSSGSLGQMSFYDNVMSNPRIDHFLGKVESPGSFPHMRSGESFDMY
Summary of the method: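 Polyhistidine-tagged DsRed fusions of transcription factors, joined at the N-terminus, were expressed in E. coli BL21-CodonPlus and isolated on Ni–NTA. They were incubated at 200 nM for 1 h at 25 °C on a custom Agilent array, double-stranded and BSA-blocked, in PBS with 2% BSA, salmon testes DNA and 50 µM zinc acetate. The binding signal is per-feature fluorescence intensity (arbitrary units) read on an Axon 4000B scanner after washing.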

Row | Sequence | binding signal
1 | CCAATTGGAATGCATTGTCTATTTGTTGTCTAGATCTCTCCGGAGTCACCTAGTGCAG | 3760 fluorescence intensity (a.u.)
2 | TTATAAATCATAAAATAATAAATAAATAAGATGCCCGCGCCGGAGTCACCTAGTGCAG | 6280 fluorescence intensity (a.u.)
3 | TATCTAATCTTAATACAATTATTTCCTACTTTATTACTCCCGGAGTCACCTAGTGCAG | 4340 fluorescence intensity (a.u.)
4 | ATCAATCTTCTCAAATTTAGACTACCTCTAAATTTGACCCCGGAGTCACCTAGTGCAG | 15400 fluorescence intensity (a.u.)
5 | CGTTTATTAATCGTTCGTAATTCGAATTATGCTGGGGACACGGAGTCACCTAGTGCAG | 5970 fluorescence intensity (a.u.)
6 | TTTATTAAATTTTCCATGATTAGCTACGCTCTTTGGAATTCGGAGTCACCTAGTGCAG | 32400 fluorescence intensity (a.u.)
7 | CTAAAATTGGAGACGTCACTACAAACGTACGCACTCTTTGCGGAGTCACCTAGTGCAG | 6760 fluorescence intensity (a.u.)
8 | CCACGGAGTTTACGGGTCAATCAGATACTCGGAATTTGGACGGAGTCACCTAGTGCAG | 4860 fluorescence intensity (a.u.)
9 | AAACCTAATTAATTCATCATTAGTAAATGTTTACCGTAGCCGGAGTCACCTAGTGCAG | 30200 fluorescence intensity (a.u.)
10 | TTTGACAGGAGTGATAGGCCTACATGAGCCCAAATGCAAACGGAGTCACCTAGTGCAG | 11700 fluorescence intensity (a.u.)
11 | AGATGATTGATTTTCAGGTGATGAACAGGGTTACTGTTTTCGGAGTCACCTAGTGCAG | 63000 fluorescence intensity (a.u.)
12 | AATCTGTAATTTGTTTTGTTATTAGTCTACATTTAATACTCGGAGTCACCTAGTGCAG | 12500 fluorescence intensity (a.u.)
13 | GTAGAGTAATTAAGTATATCCTTTTGTTCTAGTACATCGGCGGAGTCACCTAGTGCAG | 4870 fluorescence intensity (a.u.)
14 | CCCGTGGATTGCCGCCTGATTGCTTCAAAAGTGGAGTACGCGGAGTCACCTAGTGCAG | 21500 fluorescence intensity (a.u.)
15 | TGATTAATTTCATGGCTGTCTACTGCTCCTGCAACACTGGCGGAGTCACCTAGTGCAG | 12800 fluorescence intensity (a.u.)
16 | CTCCCCAATCAATATAGCTCATAGCTGCTACGAGTCTATACGGAGTCACCTAGTGCAG | 12600 fluorescence intensity (a.u.)
17 | GCCATTTTGCACCTTAATTAATTTTATGCTGTCTATTCTCCGGAGTCACCTAGTGCAG | 14500 fluorescence intensity (a.u.)
18 | TTGATAAATTTTCTTTCACAAATTTGACAAAAGTAATTATCGGAGTCACCTAGTGCAG | 12700 fluorescence intensity (a.u.)
19 | AGGAATCGGAATTGATTTCATGCACTGATCGATCCATCCACGGAGTCACCTAGTGCAG | 7970 fluorescence intensity (a.u.)
20 | CGGGACCTAATTGATGGTCATATGATGACAGAAGCTTGGACGGAGTCACCTAGTGCAG | 42400 fluorescence intensity (a.u.)
21 | TTTAAAGGATTGATTGCATTCGAGGGTAGAAGCACCACCACGGAGTCACCTAGTGCAG | 33000 fluorescence intensity (a.u.)

Row | Sequence | binding signal
22 | TCATTTGATTACTAGATTAGAAGAGTCTATACATGTATCACGGAGTCACCTAGTGCAG | 15500 fluorescence intensity (a.u.)
23 | AAGATTTAATTGCAACGAATTTAATGGTGTAATCGGATCACGGAGTCACCTAGTGCAG | 18500 fluorescence intensity (a.u.)
24 | AAGTAATTTAATGAAATCTAAAAGTAATTTAGATATATTACGGAGTCACCTAGTGCAG | 6760 fluorescence intensity (a.u.)
25 | TGAAAGTAATTTGATGCTATAAGTCAAAGTTAAAGAGATGCGGAGTCACCTAGTGCAG | 3500 fluorescence intensity (a.u.)
26 | GAGCGAGTCATCAAACTCATCAATCATTCAGCTCATCATCCGGAGTCACCTAGTGCAG | 6090 fluorescence intensity (a.u.)
27 | ATGTAATTGATATGGACTCATCTTTGGATATAAAGCAACTCGGAGTCACCTAGTGCAG | 43400 fluorescence intensity (a.u.)
28 | AACAAATCACATGCTCTAAGTGTTAAATAAATGGATCACCCGGAGTCACCTAGTGCAG | 4470 fluorescence intensity (a.u.)
29 | TCGGATAAGACCTTTAGAAATGATTGAAATTCGTCGAGAACGGAGTCACCTAGTGCAG | 4670 fluorescence intensity (a.u.)
30 | AGCTGATTGTTATGAAACTATTAGGAATATAGAGATCCACCGGAGTCACCTAGTGCAG | 43800 fluorescence intensity (a.u.)
31 | TTACATTATAATTAACTGGAATATATGTAGTTAGAATAATCGGAGTCACCTAGTGCAG | 20100 fluorescence intensity (a.u.)
32 | ATTACATATGTAATTTAGTGACTTACAATGTAAACACACGCGGAGTCACCTAGTGCAG | 5330 fluorescence intensity (a.u.)
33 | CTTAATTGCGCGCGAATGGAGTAATACTAGTACTAGTATACGGAGTCACCTAGTGCAG | 15100 fluorescence intensity (a.u.)
34 | GTTTCGATTCCGACGTTAATTACGTTTCTCAGTGTATCAACGGAGTCACCTAGTGCAG | 4410 fluorescence intensity (a.u.)
35 | GAGAAGTCCAATAAATTGGATGATCCAACACGTCCTGCTCCGGAGTCACCTAGTGCAG | 3540 fluorescence intensity (a.u.)
36 | CCTTAATTCCATCTCCTCTCCGTTTTCTTGATTAAATCCTCGGAGTCACCTAGTGCAG | 5530 fluorescence intensity (a.u.)
37 | GTGTGTATAAATTGATAGCAGCGTGCCTCTCTTCTTCTTCCGGAGTCACCTAGTGCAG | 19300 fluorescence intensity (a.u.)
38 | ATGAAAACTCAATCAATCATACGTGAATACCACCTCATTTCGGAGTCACCTAGTGCAG | 15300 fluorescence intensity (a.u.)
39 | GCACCTGATTAGTGATCATCACCTCTCACAAGCAGTCATCCGGAGTCACCTAGTGCAG | 39000 fluorescence intensity (a.u.)
40 | TCCAATATCTGATTAATTATCCGATATGACACACATGAACCGGAGTCACCTAGTGCAG | 16900 fluorescence intensity (a.u.)
41 | TTAATTTGTTAATTTATAACTCCCATTCCATGAACATTATCGGAGTCACCTAGTGCAG | 22000 fluorescence intensity (a.u.)
42 | CCCCAAATTAATTAACCAGGCTAATCATCCATTAAGAGACCGGAGTCACCTAGTGCAG | 24200 fluorescence intensity (a.u.)
